These results are taken from publication PMC4336329 (PLoS ONE, 2015).

Hit rate of the full screen: of about 310,000 compounds, about 2,200 (0.71%) showed an effect of 50% or more. The effect is printed as a negative number. The list shows a part of the results. Where a SMILES comes first, the peptide text is derived from it. [ ]: non-standard residue; d: D form. The star is where a group is joined. Tic = O=C(O)[C@@H]1Cc2ccccc2CN1; NHPr = CCCN*

Chain of human ether-à-go-go-related gene (hERG) potassium channel (Q12809 whole entry, looked up): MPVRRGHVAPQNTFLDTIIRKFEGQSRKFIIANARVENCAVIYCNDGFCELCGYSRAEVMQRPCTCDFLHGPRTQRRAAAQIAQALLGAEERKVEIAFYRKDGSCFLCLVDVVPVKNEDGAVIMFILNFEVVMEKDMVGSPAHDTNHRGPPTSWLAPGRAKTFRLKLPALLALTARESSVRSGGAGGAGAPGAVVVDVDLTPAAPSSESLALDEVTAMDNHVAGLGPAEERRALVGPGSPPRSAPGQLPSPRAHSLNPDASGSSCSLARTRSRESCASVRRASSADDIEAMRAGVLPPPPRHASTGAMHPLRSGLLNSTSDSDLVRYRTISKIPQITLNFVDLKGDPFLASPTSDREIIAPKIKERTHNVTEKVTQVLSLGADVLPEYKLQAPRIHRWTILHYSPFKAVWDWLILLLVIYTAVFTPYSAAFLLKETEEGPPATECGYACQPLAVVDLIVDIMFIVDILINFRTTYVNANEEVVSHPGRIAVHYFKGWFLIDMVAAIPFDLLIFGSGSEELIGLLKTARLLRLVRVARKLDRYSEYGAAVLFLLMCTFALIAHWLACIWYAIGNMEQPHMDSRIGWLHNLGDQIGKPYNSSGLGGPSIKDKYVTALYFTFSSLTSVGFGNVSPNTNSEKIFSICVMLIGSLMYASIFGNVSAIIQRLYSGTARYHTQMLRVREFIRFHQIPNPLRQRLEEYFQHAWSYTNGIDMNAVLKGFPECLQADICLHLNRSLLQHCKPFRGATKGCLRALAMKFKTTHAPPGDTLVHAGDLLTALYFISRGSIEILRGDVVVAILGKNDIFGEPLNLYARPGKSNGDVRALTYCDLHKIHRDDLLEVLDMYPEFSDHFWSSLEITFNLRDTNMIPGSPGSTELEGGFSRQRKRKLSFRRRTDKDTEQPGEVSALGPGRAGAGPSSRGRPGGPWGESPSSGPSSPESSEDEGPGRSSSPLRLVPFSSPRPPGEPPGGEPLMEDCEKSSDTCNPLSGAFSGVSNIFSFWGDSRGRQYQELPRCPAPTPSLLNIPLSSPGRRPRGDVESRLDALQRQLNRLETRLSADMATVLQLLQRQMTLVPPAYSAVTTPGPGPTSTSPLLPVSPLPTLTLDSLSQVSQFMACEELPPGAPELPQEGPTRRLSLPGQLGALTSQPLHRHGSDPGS

The test concerns the target human ether-à-go-go-related gene (hERG) potassium channel (human, UniProt Q12809). Briefly: primary screen, population patch clamp on CHO cells stably expressing hERG.
For the compound `COc1ccc(C)cc1NC(=O)Nc1ccc(Br)cn1`, the “hERG current change (%, negative = inhibition) at 1uM” value was 14.8%.
With `Cc1ccc(Cl)cc1NC(=S)N(Cc1cccs1)C1CCCC1` the figure was 16.3%.
Consider `O=C(Nc1ccccc1N1CCN(C(=O)c2ccccc2)CC1)c1ccco1`, for which the “hERG current change (%, negative = inhibition) at 1uM” value was -34.3%.
The same measure for `CCOC(=O)c1c(CSc2ccccc2)oc2ccc(O)cc12`: 0.183%; for `O=C(Nc1cccc(C(=O)N2CCCCC2)c1)c1ccccc1Br`: -3.81%; for `Cn1c(C(=O)N2CCCC(C(=O)NCCc3ccccc3)C2)cc2sccc21` (centres unmarked): 2.42%.
The same measure for `COc1ccc(Cl)cc1NC(=O)CC(C)=O`: 11.1%; for `COc1ccccc1OCc1ccc(C(=O)N2CCOCC2)o1`: 4.23%; for `O=C(COC(=O)c1cnc(Cl)c(Cl)c1)NCc1ccc2c(c1)OCO2`: 16.2%.
With `COc1cc(-c2nc(C(F)(F)F)c(OC)o2)cc(OC)c1OC` the figure was 14%; with `COc1ccc(C2CC(c3ccco3)n3ncnc3N2)cc1` (centres unmarked), -4.58%; with `Cc1ccc(S(=O)(=O)N2CCCCC2)cc1C(=O)NC1CCCCC1`, 8.41%.
Regarding `COCCN(CC(=O)Nc1ccccc1C(F)(F)F)C(=O)/C=C/c1ccc2ccccc2n1`, the “hERG current change (%, negative = inhibition) at 1uM” value amounted to 5.34%.
With `COc1ccc(C2Nc3ccccc3C(=O)N2c2ccc(C)cc2)cc1Cn1cc([N+](=O)[O-])cn1` (centres unmarked) the figure was 11.1%.
The same measure for `O=C1Cc2ccccc2Sc2ccccc21`: 11.7%; for `O=C(/C=C/Nc1ccc(F)cc1F)c1ccco1`: 5.55%; for `CCN1CCN(c2ccc(NC(=O)COc3ccc([N+](=O)[O-])cc3)cc2)CC1`: 2.34%.
Take `COc1ccc(Br)cc1CNc1ccc(O)cc1`: the “hERG current change (%, negative = inhibition) at 1uM” value came to 10.8%.
Regarding `O=C(CCS(=O)(=O)c1ccc(Cl)cc1)N1CCN(c2ccc(F)cc2)CC1`, the “hERG current change (%, negative = inhibition) at 1uM” value is on record as -23.8%.
Regarding `CC(C)(C)C(=O)NC1CCN(S(=O)(=O)c2cccc(C(F)(F)F)c2)CC1`, the “hERG current change (%, negative = inhibition) at 1uM” value was 4.11%.
As to `Cc1ccc(N(C(=O)Nc2ccccc2)C2=NCCC2)cc1`, the “hERG current change (%, negative = inhibition) at 1uM” value came out at 15.5%.
Consider `Cc1ccnc(NCc2cccc3ccccc23)c1.Cl`, for which the “hERG current change (%, negative = inhibition) at 1uM” value was 14%.
The same measure for `Cc1ccc(NC(=O)CSc2nnc(C)c(=O)n2N)cc1Cl`: 1.15%; for `COc1ccc(CCNC(=O)c2c(O)c3ccccc3[nH]c2=O)cc1`: 9.73%; for `O=C(CCNC(=O)Cn1cnc2ccccc2c1=O)NCCC1=CCCCC1`: 9.44%.
For the compound `CC1=NN(c2ccccc2)C(=O)C1C=Nc1ccc(N(C)C)cc1` (centres unmarked), the “hERG current change (%, negative = inhibition) at 1uM” value came to 16.5%.
The same measure for `Cc1nn(-c2ccccc2)c(N2CCCC2)c1/C=N/NC(=S)Nc1ccccc1F`: 7.19%.
The same measure for `C1CCN(C2CCN(c3nc4nonc4nc3N3CCSCC3)CC2)C1`: 5.07%; for `CSc1nnc(NC(=O)c2cccc(S(=O)(=O)N3CCOCC3)c2)s1`: -1.42%; for `Cc1[nH]c2ccccc2c1/C=N/NC(=O)Nc1ccccc1`: 6.44%.
The same measure for `COc1ccc(CNC(=O)C2CC(=O)N(C3CCCC3)C2)cc1` (centres unmarked): 20.2%; for `CCc1ccc(NC(=O)N(CCCN2CCOCC2)Cc2cccs2)cc1`: -13.7%.
Turning to `CCOC(=O)c1c(NC(=O)COC(=O)Cn2c(C)nc3ccccc32)sc2c1CCCC2`, the “hERG current change (%, negative = inhibition) at 1uM” value is recorded as 7.53%.
With `CC(=O)Nc1ccc(S(=O)(=O)NC2CC(=O)N(c3ccc4c(c3)OCCO4)C2)cc1` (centres unmarked) the figure was 2.51%; with `c1ccc2c(Nc3nc(-c4ccncc4)nc4ccccc34)cccc2c1`, 24.2%.
The same measure for `CC(OC(=O)c1cc2sccc2n1C)C(=O)NCc1cccs1` (centres unmarked): 14.1%.
Turning to `Cc1nnc(NC(=O)CSc2ccccn2)s1`, the “hERG current change (%, negative = inhibition) at 1uM” value is -3.34%.
With `CCOc1cccc(-c2cc(C(=O)N/N=C/c3ccc(OC)c(CN4CCOCC4)c3)c3ccccc3n2)c1` the figure was 18.7%.
The same measure for `O=C(NCCSc1ncc(-c2ccccc2)[nH]1)c1ccco1`: 5.68%; for `Nc1cc(S(=O)(=O)N2CCCCC2)ccc1Oc1ccccc1`: 10.4%.
Take `O=C(O)c1ccc(S(=O)(=O)N(CCc2ccccc2)Cc2ccc(Cl)cc2)cc1`: the “hERG current change (%, negative = inhibition) at 1uM” value amounted to 11.5%.
In the case of `Oc1cc2c(cc1CN1CCN(c3ncccn3)CC1)OCO2`, the “hERG current change (%, negative = inhibition) at 1uM” value is listed as 13.9%.
With `O=C(CCCn1c(=O)[nH]c2cc(Cl)ccc2c1=O)NCC1CCCO1` (centres unmarked) the figure was 2.24%.
The same measure for `COc1ccc(OC)c(CN2CCC(N3CCC(C(=O)NC4CC4)CC3)CC2)c1`: 4.7%.
As for `Cc1cc(C(=O)OCC(=O)N2CCCCCC2)ccc1[N+](=O)[O-]`, the “hERG current change (%, negative = inhibition) at 1uM” value is reported as 5.49%.
Take `O=C(Nc1scc(-c2ccccc2)c1C(=O)O)c1ccccc1F`: the “hERG current change (%, negative = inhibition) at 1uM” value is recorded as 16.8%.
Turning to `C/C(CC(=O)Nc1ccc2ccccc2c1)=N\NC(=O)c1ccc(O)c(O)c1`, the “hERG current change (%, negative = inhibition) at 1uM” value is 2.59%.
With `COCCOC(=O)C1=C(C)N(Cc2ccccc2)C(=O)NC1c1cccc(OC)c1OC` (centres unmarked) the figure was -3.34%; with `Cn1cccc1/C=N/NC(=O)c1ccco1`, 12.2%; with `Cc1ccnc2nc(C(=O)OCCOc3cccc(Br)c3)nn12`, 0.365%.
The same measure for `CC(C(=O)NCC(=O)Nc1ccc(F)c(F)c1F)N1CCN(Cc2ccc(C#N)cc2)CC1` (centres unmarked): -11.8%; for `CNC(=S)Nc1cc(C(F)(F)F)ccc1Cl`: -4.86%; for `COc1ccccc1/C=C/C=C1N=C(/C=C/c2ccc(Cl)cc2)OC/1=O`: -8%.
Take `Cc1cccc(Cn2c(=O)n(-c3ccc(CC(=O)NCc4ccco4)cc3)c(=O)c3sccc32)c1`: the “hERG current change (%, negative = inhibition) at 1uM” value is listed as 3.63%.
For the compound `C=CCN=C1NN=C(c2cc(C)n(CCOC)c2C)CS1.Cl`, the “hERG current change (%, negative = inhibition) at 1uM” value is reported as -0.114%.
With `Cc1ccc(/C=N/n2nnnc2N)cc1[N+](=O)[O-]` the figure was 10.1%; with `O=C(Nc1ccc(-c2nc3ccccc3s2)cc1)C1=COCCO1`, 20.3%.
With `Br.Clc1ccc(C2=CSC3=NCCN23)cc1Cl` the figure was -19.8%.
With `COc1cccc(CNC(=O)Cn2cccc2)c1` the figure was -0.7%.
`COc1ccc(NC(=O)C(C)NS(=O)(=O)c2ccccc2)cc1Cl` (centres unmarked): the “hERG current change (%, negative = inhibition) at 1uM” value is given as -4.57%.
With `CCC(=O)N1CCn2c1nc1ccccc12` the figure was 7.73%; with `COc1cccc(/C=N/NC(=O)Cn2ccnc2C)c1`, 1.04%.
In the case of `CN(C)c1cccc(C(=O)Nc2cccc(F)c2)c1`, the “hERG current change (%, negative = inhibition) at 1uM” value worked out at 11.2%.
As to `COc1ccc(NC2c3ncccc3C(=O)N2Cc2ccccc2)c(OC)c1` (centres unmarked), the “hERG current change (%, negative = inhibition) at 1uM” value is recorded as -0.125%.
The same measure for `Cc1cc(NC(=O)COC(=O)[C@H](Cc2c[nH]c3ccccc23)NC(=O)c2ccc(F)cc2)no1`: 3.7%.
Take `COc1ccc(C2SCC(=O)Nc3c2c(=O)[nH]n3C2CCCCCC2)cc1` (centres unmarked): the “hERG current change (%, negative = inhibition) at 1uM” value amounted to 1.43%.
The same measure for `CCCNC(=O)[C@@H]1CCCN1C(=O)[C@@H]1Cc2ccccc2CN1.Cl` (H-[Tic]-Pro-NHPr): 15.9%; for `CCC(=O)Nc1nc2ccc3sc(C)nc3c2s1`: 6.81%.
The same measure for `CCCCCC(=O)Nc1cc(S(=O)(=O)N2CCCCC2)ccc1N1CCOCC1`: 0.388%; for `Cc1cc(Br)ccc1NC(=O)CN1CCN(c2ccccn2)CC1`: -49.6%; for `CCCn1c(=O)n(C)c(=O)c2c(SC(C)C(=O)NCC3CCCO3)nc(CC(C)C)nc21` (centres unmarked): 21.2%.
Turning to `CCc1cc2c(SCc3nc4sc(C(C)=O)c(C)c4c(=O)[nH]3)ncnc2s1`, the “hERG current change (%, negative = inhibition) at 1uM” value is 12.1%.
The same measure for `Cc1ccc(/C=C2\OC(=O)c3ccccc32)cc1`: 18.9%.
With `CCOC(=O)C(C)Sc1nnc(-c2ccccc2O)n1-c1ccc(C)cc1` (centres unmarked) the figure was -2.26%; with `CCC(C)NC(=O)CCn1c(=O)c2cccn2c2ccc(F)cc21` (centres unmarked), 14.1%.
For the compound `COc1cnn(-c2ccccc2)c(=O)c1SCc1ccc(Cl)cc1Cl`, the “hERG current change (%, negative = inhibition) at 1uM” value was -6.86%.
With `COCCn1c(Cc2ccccc2)nnc1SCC(=O)N1CCCC1=O` the figure was 10.8%; with `C/C(=N/NC(=O)CNc1ccc(C)cc1)c1ccc(Cl)cc1`, 15%; with `Cc1ccc(C)c(S(=O)(=O)N2CCN(C(=O)CCc3c[nH]c4ccccc34)CC2)c1`, -6.4%.
The same measure for `COc1ccc(/C=N/O)cc1COc1ccc(NC(C)=O)cc1`: -0.0462%; for `CCOc1ccccc1C(=O)NCC(=O)OCc1c(C)noc1C`: 8.49%.
Regarding `CCOC(=O)c1ccccc1NC(=O)COC`, the “hERG current change (%, negative = inhibition) at 1uM” value is recorded as 7.66%.
The same measure for `CN(CCc1ccccc1)C1CCCN(S(=O)(=O)N(C)C)C1` (centres unmarked): 11.6%; for `Cc1nc2ccc(S(=O)(=O)c3ccc4nc(C)[nH]c4c3)cc2[nH]1`: 15.4%.
With `COC(=O)[C@@]12CCCCN1[C@H](c1ccc(SC3CCCCC3)cc1)[C@@H]1C(=O)N(C)C(=O)[C@@H]12.O=C(O)C(F)(F)F` the figure was 8.22%.
With `COc1cc(/C=C2/C(C)=C(C#N)c3nc(N)c(C#N)c(C)c32)ccc1OCC(=O)O` the figure was 8.94%; with `O=C(CSc1nnc(Nc2ccccc2)s1)Nc1cccc(S(=O)(=O)N2CCCCC2)c1`, 10.3%.
For the compound `C=CC(C)(C)O[C@@H]1O[C@H](CO)[C@@H](O)[C@H](O)[C@H]1O`, the “hERG current change (%, negative = inhibition) at 1uM” value stood at 17.2%.
On to `Cc1nn(-c2ccc([N+](=O)[O-])cc2)c2c1C(c1cccc(Br)c1)N1C(=N2)C(=O)Nc2ccccc21` (centres unmarked), for which the “hERG current change (%, negative = inhibition) at 1uM” value was 7.48%.
